Experimental data taken from publication PMC4336329 (PLoS ONE, 2015).
Screen size: about 310,000 compounds; about 2,200 (0.71%) showed an effect of 50% or more. The effect is printed as a negative number. The list shows a part of the results.

Target: human ether-à-go-go-related gene (hERG) potassium channel (human, UniProt Q12809)
Assay: primary screen, population patch clamp on CHO cells stably expressing hERG

human ether-à-go-go-related gene (hERG) potassium channel, sequence (Q12809 whole entry, looked up): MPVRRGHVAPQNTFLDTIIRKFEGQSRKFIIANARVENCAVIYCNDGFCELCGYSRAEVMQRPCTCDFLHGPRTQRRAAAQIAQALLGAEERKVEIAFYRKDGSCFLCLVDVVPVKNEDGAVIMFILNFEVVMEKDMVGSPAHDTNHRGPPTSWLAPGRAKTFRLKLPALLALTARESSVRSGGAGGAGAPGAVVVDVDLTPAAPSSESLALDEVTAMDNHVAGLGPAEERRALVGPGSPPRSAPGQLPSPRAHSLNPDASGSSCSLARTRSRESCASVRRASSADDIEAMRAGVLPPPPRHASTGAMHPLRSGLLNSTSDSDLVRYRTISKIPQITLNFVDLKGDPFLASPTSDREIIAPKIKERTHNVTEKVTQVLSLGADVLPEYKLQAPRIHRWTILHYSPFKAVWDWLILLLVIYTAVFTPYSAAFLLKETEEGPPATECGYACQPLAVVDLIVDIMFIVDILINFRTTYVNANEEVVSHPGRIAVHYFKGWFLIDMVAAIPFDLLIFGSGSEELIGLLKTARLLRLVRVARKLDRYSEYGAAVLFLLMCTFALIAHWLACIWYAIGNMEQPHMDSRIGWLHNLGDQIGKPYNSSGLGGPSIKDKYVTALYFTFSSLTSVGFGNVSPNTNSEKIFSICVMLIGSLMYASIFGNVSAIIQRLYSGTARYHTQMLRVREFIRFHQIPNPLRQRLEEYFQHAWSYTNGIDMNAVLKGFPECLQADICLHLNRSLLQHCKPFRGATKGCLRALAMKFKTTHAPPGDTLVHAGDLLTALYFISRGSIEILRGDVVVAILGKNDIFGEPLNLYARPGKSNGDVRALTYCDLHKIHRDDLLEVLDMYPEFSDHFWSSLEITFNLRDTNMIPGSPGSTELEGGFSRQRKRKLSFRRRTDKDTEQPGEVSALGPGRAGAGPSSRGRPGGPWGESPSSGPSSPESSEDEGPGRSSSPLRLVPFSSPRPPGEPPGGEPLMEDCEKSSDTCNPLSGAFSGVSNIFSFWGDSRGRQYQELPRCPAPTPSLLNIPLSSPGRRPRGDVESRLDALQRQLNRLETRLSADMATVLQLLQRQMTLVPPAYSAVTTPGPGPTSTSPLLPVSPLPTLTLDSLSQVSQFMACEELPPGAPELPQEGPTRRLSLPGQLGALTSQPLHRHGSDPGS

Row | Compound | hERG current change (%, negative = inhibition) at 1uM [%]
1 | Cc1cc(NC(=O)CSCC(=O)N(C)Cc2cccc(Cl)c2)no1 | 6.22
2 | Cc1nc2cc(-c3cccc(F)c3)nn2c(C)c1CCC(=O)NC(C)c1ccc2c(c1)OCCO2 (centres unmarked) | -2.28
3 | Cc1cccc(-n2c(SCc3ccc(C#N)cc3)nnc2-c2c[nH]c3ccccc23)c1 | 9.46
4 | CCOC(=O)N1CCC(NC(=O)c2ccc3c(c2)N=C(C)c2ccccc2S3)CC1 | 10.8
5 | Cc1ccccc1NC(=O)c1ccc(C)c(S(=O)(=O)Nc2cccnc2)c1 | 11.1
6 | CC(=O)c1cccc(NS(=O)(=O)c2c(C)noc2C)c1 | 15.3
7 | COc1ccc(CCN2C(=O)NC(NS(=O)(=O)c3ccc(NC(C)=O)cc3)(C(F)(F)F)C2=O)cc1OC (centres unmarked) | -0.301
8 | CCc1ccc(N2CC(C(=O)NCc3ccc4c(c3)OCO4)CC2=O)cc1 (centres unmarked) | 7.51
9 | Cc1cccc(-c2nc3ccccc3c(=O)n2NC(=O)/C=C/c2ccc([N+](=O)[O-])cc2)c1 | -11.1
10 | CN(C)S(=O)(=O)c1ccc(N2CCCC2)c(C(=O)OCC(=O)N2CCN(c3ccccc3)CC2)c1 | 4.41
11 | CCCCC(=O)NC(=S)NNC(=O)CCc1ccccc1 | 10.8
12 | CC#CCNCc1ccccc1 | 16.5
13 | Cc1cc(Br)cc(Br)c1OCC(=O)NNC(=O)Nc1ccccc1 | 6.33
14 | CCCCOc1nc2ccccc2nc1C(C#N)C(=O)NC1CCCCC1 (centres unmarked) | 13.3
15 | O=[N+]([O-])c1ccc(-[n+]2ccc3ccccc3c2)c([N+](=O)[O-])c1.[Cl-] | 3.65
16 | COC(=O)c1sccc1NC(=O)CC1C(=O)NCCN1C(=O)Nc1ccc(C(F)(F)F)cc1 (centres unmarked) | 10.5
17 | Cc1ccsc1/C=C1/SC(N2CCOCC2)=NC1=O | 7.45
18 | COc1cccc(/C=N/NC(=O)c2cc(C34CC5CC(CC(C5)C3)C4)[nH]n2)c1 | 4.28
19 | COc1ccc(-c2nn(CCC(=O)O)cc2/C=C/C(=O)O)cc1[N+](=O)[O-] | 12.4
20 | CCOC(=O)c1cnc(SC2CC(=O)N(c3ccc(OC)c(OC)c3)C2=O)nc1N (centres unmarked) | -5.27
21 | CC1CCN(CCc2nc3cc(NC(=O)C(C)C)ccc3n2C)CC1 | 9.1
22 | Cc1cc(C)cc(OCC(=O)Nc2ccc(N3CCCCC3)cc2)c1 | 13.2
23 | COc1ccc(CCN=C(N)NS(=O)(=O)c2ccc(F)cc2)cc1OC | 6.27
